Results published in the supplement of paper PMC12217912.
The other results are listed elsewhere or left out. The full chains were built here from the parent and the listed change. Values near 0.05 are background.

B1: TEV protease; numbered along this chain (parent)
chain: MGESLFKGPRDYNPISSSICHLTNESDGHTTSLYGIGFGPFIITNKHLFRRNNGTLVVQSLHGVFKVKDTTTLQQHLVDGRDMIIIRMPKDFPPFPQKLKFREPQREERICLVTTNFQTKSMSSMVSDTSCTFPSGDGIFWKHWIQTKDGQCGSPLVSTRDGFIVGIHSASNFTNTNNYFTSVPKNFMELLTNQEAQQWVSGWRLNADSVLWGGHKVFMVKPEEPFQPVKEATQL

Variants of: B1
Assay: raw area under fraction-flipped curve 0-4 h after induction (AUC4h, not background-subtracted), DNA-recorder readout of cleavage of the substrate (dimensionless); higher = more cleavage of the substrate by the protease variant
Settings: temperature: 34 °C; time window: 0-4 h after rhamnose induction
Method: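 In vivo DNA recorder in E. coli TOP10(DE3) ΔrhaA at 34 °C. Each TEVp single-site mutant (parent TEVp 0) is paired with a single-site variant of the 7-mer TEVs (canonical ENLYFQ|S). The substrate sits between flexible linkers in a Bxb1-sfGFP-TEVs-SsrA fusion, so cleavage stabilises Bxb1 and speeds flipping of a recombination array, read by NGS. The value is the raw area under the fraction-flipped curve over 0-4 h after rhamnose induction (AUC4h), with ≥20 reads per time point. It is not background-subtracted; inactive controls average about 0.047.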
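Note: Bxb1 expression induced with 0.2% (w/v) L-rhamnose at OD600 near 0.5, cultures sampled hourly, flipped fraction per protease–substrate barcode pair counted by paired-end Illumina sequencing.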

Variant: F6N
- area with substrate ENAYFQS: 0.0464
- area with substrate ENCYFQS: 0.069
- area with substrate ENDYFQS: 0.0629
- area with substrate ENGYFQS: 0.0375
- area with substrate ENQYFQS: 0.0609
- area with substrate ENRYFQS: 0.0609

Variant: I84V
- area with substrate ENAYFQS: 0.0659
- area with substrate ENDYFQS: 0.0527
- area with substrate ENEYFQS: 0.0527
- area with substrate ENHYFQS: 0.061
- area with substrate ENMYFQS: 0.0806
- area with substrate ENRYFQS: 0.0593
- area with substrate ENSYFQS: 0.0478
- area with substrate ENVYFQS: 0.0889
- area with substrate ENYYFQS: 0.0572

Variant: I84H
- area with substrate ENAYFQS: 0.053
- area with substrate ENCYFQS: 0.0483
- area with substrate ENDYFQS: 0.0516
- area with substrate ENEYFQS: 0.0854
- area with substrate ENFYFQS: 0.0515
- area with substrate ENGYFQS: 0.0506
- area with substrate ENKYFQS: 0.0561
- area with substrate ENNYFQS: 0.0522
- area with substrate ENPYFQS: 0.0653
- area with substrate ENQYFQS: 0.0539
- area with substrate ENRYFQS: 0.0332
- area with substrate ENSYFQS: 0.0539
- area with substrate ENVYFQS: 0.0514
- area with substrate ENWYFQS: 0.0532

Variant: R87Q
- area with substrate ENAYFQS: 0.0696
- area with substrate ENDYFQS: 0.0504
- area with substrate ENHYFQS: 0.059
- area with substrate ENMYFQS: 0.0991
- area with substrate ENNYFQS: 0.0342
- area with substrate ENTYFQS: 0.118

Variant: R87N
- area with substrate ENAYFQS: 0.0535

Variant: R87T
- area with substrate ENAYFQS: 0.0521
- area with substrate ENDYFQS: 0.0617
- area with substrate ENFYFQS: 0.0568
- area with substrate ENGYFQS: 0.0732
- area with substrate ENIYFQS: 0.0722
- area with substrate ENNYFQS: 0.0713
- area with substrate ENRYFQS: 0.0905
- area with substrate ENSYFQS: 0.0532

Variant: E3W
- area with substrate ENAYFQS: 0.0611
- area with substrate ENFYFQS: 0.0328
- area with substrate ENGYFQS: 0.0436
- area with substrate ENHYFQS: 0.0635
- area with substrate ENKYFQS: 0.0658
- area with substrate ENMYFQS: 0.0807
- area with substrate ENQYFQS: 0.0672
- area with substrate ENRYFQS: 0.0436
- area with substrate ENSYFQS: 0.0701
- area with substrate ENTYFQS: 0.0919
- area with substrate ENVYFQS: 0.0772

Variant: E3A
- area with substrate ENAYFQS: 0.0501
- area with substrate ENCYFQS: 0.0633
- area with substrate ENDYFQS: 0.085
- area with substrate ENEYFQS: 0.0616
- area with substrate ENFYFQS: 0.055
- area with substrate ENGYFQS: 0.0646
- area with substrate ENHYFQS: 0.0608
- area with substrate ENMYFQS: 0.101
- area with substrate ENPYFQS: 0.0613
- area with substrate ENQYFQS: 0.0541
- area with substrate ENRYFQS: 0.0581
- area with substrate ENSYFQS: 0.0573
- area with substrate ENTYFQS: 0.0654
- area with substrate ENVYFQS: 0.0857
- area with substrate ENYYFQS: 0.0604

Variant: E3D
- area with substrate ENAYFQS: 0.0637
- area with substrate ENDYFQS: 0.061
- area with substrate ENEYFQS: 0.0641
- area with substrate ENFYFQS: 0.0721
- area with substrate ENHYFQS: 0.0545
- area with substrate ENKYFQS: 0.0682
- area with substrate ENMYFQS: 0.0611
- area with substrate ENNYFQS: 0.0568
- area with substrate ENQYFQS: 0.052
- area with substrate ENSYFQS: 0.0468
- area with substrate ENTYFQS: 0.0629

Variant: R50Y
- area with substrate ENAYFQS: 0.0549
- area with substrate ENDYFQS: 0.0608
- area with substrate ENFYFQS: 0.082
- area with substrate ENGYFQS: 0.0741
- area with substrate ENHYFQS: 0.051
- area with substrate ENIYFQS: 0.14
- area with substrate ENMYFQS: 0.0715
- area with substrate ENQYFQS: 0.0593
- area with substrate ENRYFQS: 0.0811
- area with substrate ENSYFQS: 0.0673
- area with substrate ENTYFQS: 0.0678

Variant: R50W
- area with substrate ENAYFQS: 0.0559
- area with substrate ENDYFQS: 0.0776
- area with substrate ENFYFQS: 0.063
- area with substrate ENGYFQS: 0.0569
- area with substrate ENIYFQS: 0.138
- area with substrate ENMYFQS: 0.134
- area with substrate ENNYFQS: 0.0638
- area with substrate ENRYFQS: 0.046
- area with substrate ENSYFQS: 0.0691
- area with substrate ENVYFQS: 0.0924

Variant: Y12R
- area with substrate ENAYFQS: 0.0575
- area with substrate ENCYFQS: 0.0605
- area with substrate ENDYFQS: 0.0473
- area with substrate ENEYFQS: 0.0521
- area with substrate ENGYFQS: 0.061
- area with substrate ENMYFQS: 0.0971
- area with substrate ENQYFQS: 0.0681
- area with substrate ENRYFQS: 0.0614
- area with substrate ENSYFQS: 0.0614
- area with substrate ENTYFQS: 0.0697
- area with substrate ENVYFQS: 0.0733
- area with substrate ENWYFQS: 0.0573

Variant: N53L
- area with substrate ENAYFQS: 0.0617
- area with substrate ENDYFQS: 0.0614
- area with substrate ENEYFQS: 0.0666
- area with substrate ENHYFQS: 0.0558
- area with substrate ENPYFQS: 0.0437
- area with substrate ENQYFQS: 0.0624
- area with substrate ENTYFQS: 0.0507
- area with substrate ENVYFQS: 0.0607
- area with substrate ENWYFQS: 0.0518
- area with substrate ENYYFQS: 0.0555

Variant: T44M
- area with substrate ENAYFQS: 0.0491
- area with substrate ENCYFQS: 0.0604
- area with substrate ENDYFQS: 0.0541
- area with substrate ENFYFQS: 0.0432
- area with substrate ENGYFQS: 0.0554
- area with substrate ENHYFQS: 0.0753
- area with substrate ENIYFQS: 0.0735
- area with substrate ENKYFQS: 0.0497
- area with substrate ENMYFQS: 0.0531
- area with substrate ENNYFQS: 0.0586
- area with substrate ENPYFQS: 0.0583
- area with substrate ENQYFQS: 0.0461
- area with substrate ENRYFQS: 0.0456
- area with substrate ENSYFQS: 0.0543
- area with substrate ENWYFQS: 0.0428
- area with substrate ENYYFQS: 0.0492

Variant: L33D
- area with substrate ENAYFQS: 0.0659
- area with substrate ENCYFQS: 0.0541
- area with substrate ENDYFQS: 0.0655
- area with substrate ENEYFQS: 0.0824
- area with substrate ENFYFQS: 0.0548
- area with substrate ENGYFQS: 0.0613
- area with substrate ENMYFQS: 0.0648
- area with substrate ENNYFQS: 0.0561
- area with substrate ENQYFQS: 0.0635
- area with substrate ENRYFQS: 0.0619
- area with substrate ENSYFQS: 0.057
- area with substrate ENTYFQS: 0.0597
- area with substrate ENVYFQS: 0.0522

Variant: S60W
- area with substrate ENAYFQS: 0.0653
- area with substrate ENCYFQS: 0.0464
- area with substrate ENDYFQS: 0.0384
- area with substrate ENEYFQS: 0.057
- area with substrate ENFYFQS: 0.0569
- area with substrate ENHYFQS: 0.0549
- area with substrate ENNYFQS: 0.0375
- area with substrate ENPYFQS: 0.0709
- area with substrate ENQYFQS: 0.0538
- area with substrate ENRYFQS: 0.0462
- area with substrate ENSYFQS: 0.0651
- area with substrate ENTYFQS: 0.0524
- area with substrate ENVYFQS: 0.0589
- area with substrate ENYYFQS: 0.0544
